According to the RNAGym collection of RNA variant scans (doi:10.1093/nar/gkz1192):
The source gives no read counts; variants with many changes may rest on few reads.

B1: CPEB3 Ribozyme (parent)
chain: UAACAGGGGGCCACAGCAGAAGCGUUCACGUCGCAGCCCCUGUCAGAUUCUGGUGAAUCUGCGAAUUCUGCUGUAUAUCUC

Variants of: B1
Test: self-cleavage, relative activity (ratio to wild type); higher = more cleavage; in vitro, sequencing
In short: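 CPEB3 self-cleaving ribozyme mutant libraries were made by rounds of error-prone PCR, barcoded, and transcribed in vitro with T7 RNA polymerase for 5 hours at 37°C. Cleavage occurred during transcription and a 15 min DNase I step before EDTA stop. RNAs were reverse transcribed with template switching and Illumina-sequenced, with DNA sequencing mapping barcodes to variants. Relative activity is the variant's cleaved/total read fraction divided by wild type's (minimum 5 reads), averaged across three batches.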

Question: For UAACGGGGGGCCGCAGCAGUAGCAUUCACGUCGCUGCCCCUGUCAGAUUCUGGUGGAUCUGCGAAUUCUGCUGUAUAUCUC [A5G A13G A20U G24A A35U A56G], which self-cleavage is on record?
Answer: 0.05

Question: Which self-cleavage does the source give for UAACCGGGGGCCACAGCAGAAGCGUUCACGACGCAGCCCCUGUCAGAUUCUGGUGAACCUGCGUAUUCUGCUGUAUAUCUC [A5C U31A U58C A64U] here?
Answer: 0.18

Question: For UAACGGGGGGCCGCAGCUGAAGCGUUCACGUCGCAGCCCCUGUCAGAUUCUGGUGAAUCCGCGAAUUCUGCCGUAUAUCUC [A5G A13G A18U U60C U72C], which self-cleavage is on record?
Answer: 0.09

Question: Which self-cleavage does the source give for UAACCGGGGGCCACAGCAGAAGCGUUCACGUCGCAGCCCCUGGCAGAUUCUGGUGGAUCUGCGAAUUCUGCUGUAUAUCUC [A5C U43G A56G] here?
Answer: 0.34

Question: For UAACGGGGGGCCCCAGCAGAAGCGUUCACGACGCAGCCCCUGUCAGACUCUGGUGAAUCUGCGAAUUCUGCUGUAUUUCUC [A5G A13C U31A U48C A77U], which self-cleavage is on record?
Answer: 0.14

Question: For UAACGGGGGGCCGCAGCAGAAGCGUUCACGUCGCAGCCCCUGUCAAAUUCUGGUGAAUCUGCGGAUUCUGAUGUAUAUCCC [A5G A13G G46A A64G C71A U80C], which self-cleavage is on record?
Answer: 0.15

Question: Which self-cleavage does the source give for UAACGGGGGGCCGCAGCAGGAGCGUUCACGUCGCAGCCCCUGUCAGAUUCUGGUGAAUCUGCGAAUUCUGCUGAAUAUCUC [A5G A13G A20G U74A] here?
Answer: 0.81

Question: With UAACGGGGGGCCCCAGCAGAAGCGCUCACGUCGCAGCCCCCGUCGGAUUCUGGUGAAUCUGCGAAUUCUGCUGUAUAUCUC [A5G A13C U25C U41C A45G] as the variant, how does the self-cleavage read?
Answer: 0.06

Question: With UAACCGGGGGCCACAGCAGAAGCGUCCACGUCGCAGCCCCUGUCAGAUUCAGGUGAAUCUGCGAAUUCCGCUGUAUAUCUC [A5C U26C U51A U69C] as the variant, how does the self-cleavage read?
Answer: 0.31

Question: For UAACCGGGGGCCACAGCAGAAGCGCUCACGUCGCAACCCCUGUCAGAUUCUGGUGUAUCUGCGAAUUCUGCUGUAUAUCCC [A5C U25C G36A A56U U80C], which self-cleavage is on record?
Answer: 0.17

Question: For UAACGGGGGGCCGCGGCAGAUGCGUUCACGUCGCAGCCCCUGUCAGAUUCUGGUGAAUCUGCGAAUUCUGCUGUAUAUCUC [A5G A13G A15G A21U], which self-cleavage is on record?
Answer: 0

Question: With UAACGGGGGGCCGCGGCAGAAGCGUUCACGUCGCUGUCCCAGUCAGAUUCUGGUGAAUCUGCGAAUUCUGCCGUAUAUCUC [A5G A13G A15G A35U C37U U41A U72C] as the variant, how does the self-cleavage read?
Answer: 0.06

Question: With UAACGGGGGGCCGCAGCAGUAGCGCUCACGUCGCAGCCCCUGUCAGAUUCUGGUGAAUCUGCGAAUUCUGCUGUAUAUCUC [A5G A13G A20U U25C] as the variant, how does the self-cleavage read?
Answer: 0.64

Question: For UAACCGGGGGCCACAGCAGAAGCGUUCACGCCGCAGCCCCUGUCAGAUUCUGGCGAAUCUGCGAAUUCUGCUGUAUGUCCC [A5C U31C U54C A77G U80C], which self-cleavage is on record?
Answer: 0.71

Question: Which self-cleavage does the source give for UAACCGGGGGCCACAGCAGAAGCGUACACGUCGCAGCCCCUGUCAGAUUCUGGUGAAUCAGCGAAUUCUGCUGUAUAUCUC [A5C U26A U60A] here?
Answer: 0.8

Question: For UAACGGGGGGCCGCAGCUGAAGCGUUCACGUCGCAGCCCCUGUCAGAUUCUGGUGAAUCUGCGAAUUCUGCUGUAUAUCUC [A5G A13G A18U], which self-cleavage is on record?
Answer: 0.59

Question: With UAACCGGGGGCCACAGCAGAAGCGUUCACGUCGCAGCCCCUGCCAGACUCUGGUGAAUCUGCGAACUCUACUGUAUAUCUC [A5C U43C U48C U66C G70A] as the variant, how does the self-cleavage read?
Answer: 0.25

Question: With UAACCGGGGGCCACAGCAGAAGCGUUCACGCCGCAGCCCCUGUCAGGUUCUGGUGAAUCUGCGAAUUCCGCUGUUUAUCUC [A5C U31C A47G U69C A75U] as the variant, how does the self-cleavage read?
Answer: 0.16

Question: Which self-cleavage does the source give for UAACCGGGGGCCACAGCAGAAGCGUUCACGUCGCAGCCCCUGUCAGAUUCUGGUGAAUCUGCGAAUUCCGCAGUAUAUCUC [A5C U69C U72A] here?
Answer: 0.33

Question: For UAACGGGGGGCCGCAGCAGAGGCGUUCACGUCGCAGCCCCUGUCAGAUUCUGGUGGGUCUGCGAAUUCCGCUGUAUAUCUC [A5G A13G A21G A56G A57G U69C], which self-cleavage is on record?
Answer: 0.31

Question: With UAACGGGGGGCCGCAGCGGAAGCGCUCACGUCGCAGCCCCUGUCAGAUUCUGGUGAAUCUGCGAAUUCUGCCGUAUAUCUC [A5G A13G A18G U25C U72C] as the variant, how does the self-cleavage read?
Answer: 0.05

Question: Which self-cleavage does the source give for UAACGGGGGGCCGCAGCAGAUGCACUCACGUCGCAGCCCCUGUCAGACUCUGGUGAAUCUGCGAAUUCUGCUGUAUAUCUC [A5G A13G A21U G24A U25C U48C] here?
Answer: 0.32

Question: Which self-cleavage does the source give for UAACGGGGGGCCGCAGCAGAAGCAUUCACGUCGCGGCCCCUGACAGAUUCUGGUGGACCUGCGAAUUCUGCUGUAUAUCUC [A5G A13G G24A A35G U43A A56G U58C] here?
Answer: 0.04

Question: Which self-cleavage does the source give for UAACGGGGGGCCCCAGCAGAAGCGUUCACGUCGCAGCCCCCGUCAGAUUCUGGUGGAUCUGCGAAUUCUGCUGUAUAUCUC [A5G A13C U41C A56G] here?
Answer: 0.48

Question: Which self-cleavage does the source give for UAACGGGGGGCCGCAGCAGACGCGUUCACGUCGCAGCCCCUGUCAGAUUCUGGUGAAUCUGCGAGUUCUGCUGUAUAACUC [A5G A13G A21C A65G U78A] here?
Answer: 0.18

Question: Which self-cleavage does the source give for UAACGGGGGGCCGCAGCAGAAGCGUUCACGUCGCAGCGCCUGUCAGAUUCUGGUGAAUCUGCGGAUCCUGCUGUAUAUCUC [A5G A13G C38G A64G U67C] here?
Answer: 0.2

Question: For UAACGGGGGGCCCCAGCAGAAGCGUUCACGUCGCAGCCCCUGUCAGAUUCUGGUGAAUCUACGAGUUCUGCUGUAUAUCUC [A5G A13C G61A A65G], which self-cleavage is on record?
Answer: 0.25

Question: With UAACCGGGGGCCACAGCAGAAGCGUUCACGUCGCAGCCCCUGUCAGAUUCAGGUGAAUCUGCGAGUUCUGCUGUAUUUCUC [A5C U51A A65G A77U] as the variant, how does the self-cleavage read?
Answer: 0.57

Question: For UAACGGGGGGCCGCAGCAGAAGCGUUCACGUCGCAGCCCCUGUCCGAUUCUGGAGAAUCUGCGAAUUCUGCUGUAUAUCUC [A5G A13G A45C U54A], which self-cleavage is on record?
Answer: 0.52

Question: Which self-cleavage does the source give for UAACGGGGGGCCGCAGCAGAAGCGUUCACGUCGCAGCCCCUGUCAGGUUCUGGUGAAUCUGCGAAUUCUGCUGUAUAUCUC [A5G A13G A47G] here?
Answer: 0.64

Question: With UAACGGGGGGCCCCAGCAGAAGCGUUCACGUCGCAGCCCCUGUCAGAUUCUGGUGAAUCUGCGGAUUCUGCCGUAUGUCUC [A5G A13C A64G U72C A77G] as the variant, how does the self-cleavage read?
Answer: 0.35

Question: For UAACGGGGGGCCGCAGCAGAAGCGUUCACGUCGCAGCCCCUGUCAGAUUCUGGUGGACCUGCGAAUUCUGCUGUAUAUCUC [A5G A13G A56G U58C], which self-cleavage is on record?
Answer: 0.4

Question: Which self-cleavage does the source give for UAACGGGGGGCCGCAGCAGAAGCGUUCACGUCGCAGCCCCUGUCGGAUUCUGGUGAAUCUGCGAAUUCUGCUGUAUAUCUC [A5G A13G A45G] here?
Answer: 0.72

Question: With UAACGGGGGGCCGCAGCAGAAGCGUUCACGUCGCUGCCCCUGUCAGAUUCUGGUGAGUCUGCGUAUUCUGCUGUAUAUCUC [A5G A13G A35U A57G A64U] as the variant, how does the self-cleavage read?
Answer: 0.04
